From the BET-seq Pho4 binding data (Le et al. 2018)
This is one part of the list. Values were computed here from the reads of four pooled replicates and scatter widely.

Each sequence was assayed against T1, Pho4 (S. cerevisiae) (UniProt P07270) (assay: relative binding free energy (BET-seq); higher = weaker binding). Settings: reference: library average.
T1 sequence: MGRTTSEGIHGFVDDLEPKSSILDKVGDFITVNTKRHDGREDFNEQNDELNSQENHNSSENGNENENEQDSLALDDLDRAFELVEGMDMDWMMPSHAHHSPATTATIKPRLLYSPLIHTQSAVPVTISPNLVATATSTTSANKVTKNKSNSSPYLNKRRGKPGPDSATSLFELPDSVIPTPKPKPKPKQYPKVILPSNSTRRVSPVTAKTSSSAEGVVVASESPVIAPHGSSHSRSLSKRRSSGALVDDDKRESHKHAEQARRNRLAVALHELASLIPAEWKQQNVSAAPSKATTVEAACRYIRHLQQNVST

Sequence	relative binding free energy
AAGGCCACGTGTAGTT	-0.06 kcal/mol
TAGTTCACGTGTGGGG	0.31 kcal/mol
GAGCACACGTGGGAGG	0.02 kcal/mol
ACTTGCACGTGTGGTA	0.06 kcal/mol
ATTGTCACGTGCTTTA	-0.04 kcal/mol
TAGGACACGTGATTAT	0.15 kcal/mol
TGCTCCACGTGGGGGA	0.04 kcal/mol
AGGTCCACGTGAGAGG	0.24 kcal/mol
TTTCTCACGTGAATTT	0.48 kcal/mol
TGTTTCACGTGTCGCT	0.21 kcal/mol
TGTGGCACGTGTTAAC	0.05 kcal/mol
AGATTCACGTGGGCGA	0.27 kcal/mol
AATATCACGTGTAATT	0 kcal/mol
AGATACACGTGGGTAA	-0.03 kcal/mol
TTTTCCACGTGGATGA	0.22 kcal/mol
TAAAGCACGTGTTTGA	-0.14 kcal/mol
AATATCACGTGTTGTT	0.13 kcal/mol
GCTTTCACGTGGTGGT	0.28 kcal/mol
GCGGTCACGTGGGCGG	-0.04 kcal/mol
TAGATCACGTGGTAGA	0.14 kcal/mol
GGTGCCACGTGGAAGT	0.12 kcal/mol
TCTTGCACGTGTGTTA	0.03 kcal/mol
TCGGTCACGTGGGTTA	0.03 kcal/mol
GAGGCCACGTGGCGTG	-0.16 kcal/mol
GTTTCCACGTGCGTTG	0.07 kcal/mol
GGGGGCACGTGATTTA	0.1 kcal/mol

Sequence	relative binding free energy
CGGGGCACGTGGTTTG	-0.12 kcal/mol
GTGCTCACGTGTGTGA	0.24 kcal/mol
TGTTTCACGTGGTCAA	0.15 kcal/mol
TGGGGCACGTGTGATA	-0.04 kcal/mol
TGATGCACGTGTTGCG	0.02 kcal/mol
GCGGACACGTGTGTGT	0.14 kcal/mol
TTTTTCACGTGTATCT	0.15 kcal/mol
AGAAACACGTGTGTAG	0.09 kcal/mol
GGGGTCACGTGGACGG	0.27 kcal/mol
TTTCTCACGTGGATGT	0.36 kcal/mol
TGCTTCACGTGTGCTT	0.3 kcal/mol
TTATTCACGTGGTTAA	0.17 kcal/mol
TGTTGCACGTGTCGCG	0.02 kcal/mol
TCGTTCACGTGGTGGG	0.21 kcal/mol
TTTTGCACGTGGGGGC	-0.14 kcal/mol
TCGGGCACGTGCATGT	-0.04 kcal/mol
TGAAGCACGTGTTTAT	-0.08 kcal/mol
TAGTTCACGTGATACT	0.31 kcal/mol
AGTCGCACGTGGTGCT	-0.05 kcal/mol
TTTAGCACGTGTAATA	0.11 kcal/mol
ACGGTCACGTGGGTCT	0.01 kcal/mol
AGGTCCACGTGATGGG	0.15 kcal/mol
GTAAACACGTGGATTG	0 kcal/mol
ATTGCCACGTGGTAGT	-0.19 kcal/mol
AAATGCACGTGAGATG	0.35 kcal/mol
TGAGTCACGTGTCGTT	0.3 kcal/mol

Sequence	relative binding free energy
TTGAGCACGTGTAGGG	-0.14 kcal/mol
GATAGCACGTGCGTGT	-0.08 kcal/mol
GAGGCCACGTGGGGAA	-0.14 kcal/mol
GTGTGCACGTGTTACA	-0.02 kcal/mol
GAGGTCACGTGTTAGG	0.16 kcal/mol
TCTGACACGTGTATGT	0.15 kcal/mol
CATGTCACGTGGGTTT	-0.01 kcal/mol
ATAGGCACGTGTATGT	-0.04 kcal/mol
AATGGCACGTGTGAGG	-0.04 kcal/mol
GAAAGCACGTGTGGTA	-0.02 kcal/mol
CTGATCACGTGGGGGC	-0.05 kcal/mol
AGATTCACGTGGCGTT	0.23 kcal/mol
GTGAACACGTGGGCGA	-0.04 kcal/mol
TTGCCCACGTGTTGGG	-0.15 kcal/mol
GGCTACACGTGAGTTG	0.28 kcal/mol
GTAGGCACGTGGACGA	-0.04 kcal/mol
TCGGCCACGTGGTTAG	-0.08 kcal/mol
ATTGTCACGTGGAAGA	0.08 kcal/mol
CTGGGCACGTGTATTG	-0.09 kcal/mol
AAAGGCACGTGGCTTT	-0.05 kcal/mol
GGCATCACGTGAGGGT	0.43 kcal/mol
GTACACACGTGTTTGT	-0.13 kcal/mol
TAAGGCACGTGATGCT	-0.01 kcal/mol
ATTGACACGTGTTGTG	-0.04 kcal/mol
TATAGCACGTGTGTAG	-0.04 kcal/mol
GGACTCACGTGAAGGG	0.24 kcal/mol

Sequence	relative binding free energy
TGCGTCACGTGGGATT	0.01 kcal/mol
TTTTTCACGTGATGCA	0.28 kcal/mol
GCTGTCACGTGTGGGG	0.18 kcal/mol
TGGGACACGTGGGATG	-0.01 kcal/mol
GGAGACACGTGTTGTA	-0.08 kcal/mol
AAATGCACGTGGGAGG	-0.23 kcal/mol
TGTATCACGTGAGTTG	0.39 kcal/mol
TATATCACGTGTCTGG	0.12 kcal/mol
TGTCGCACGTGGGGGC	-0.16 kcal/mol
GTCCTCACGTGTTGGT	0.23 kcal/mol
ATTCACACGTGCTGTT	0.15 kcal/mol
ATAAGCACGTGATGTA	0.02 kcal/mol
AGTGGCACGTGGGTCG	-0.13 kcal/mol
TGTTGCACGTGGGTGC	-0.08 kcal/mol
TATTGCACGTGCTCTT	0.04 kcal/mol
TTTGACACGTGTTTTC	0.08 kcal/mol
GGTGCCACGTGCAGTG	-0.08 kcal/mol
GGTTTCACGTGGTGAG	0.31 kcal/mol
ATGGACACGTGGCGCG	-0.01 kcal/mol
TTCATCACGTGGAATA	0.3 kcal/mol
TAGTGCACGTGGTAGA	-0.06 kcal/mol
AGGATCACGTGTGAGA	0.27 kcal/mol
GATATCACGTGAGTGG	0.25 kcal/mol
AGGGACACGTGGGGGC	-0.13 kcal/mol
GTAGTCACGTGGTGGA	0.09 kcal/mol
GCATGCACGTGTTGGA	-0.03 kcal/mol

Sequence	relative binding free energy
ATGTGCACGTGGTACG	-0.12 kcal/mol
AATGTCACGTGTTTGG	0.1 kcal/mol
GGTTCCACGTGGTTCG	0.2 kcal/mol
TAATGCACGTGTGTCT	-0.14 kcal/mol
GTTTGCACGTGGTTGG	0.14 kcal/mol
CGAGACACGTGTGGGA	0.2 kcal/mol
AGAATCACGTGTAGTA	0.1 kcal/mol
GATGACACGTGGAGTG	0.11 kcal/mol
CAGTACACGTGAAGGT	0.28 kcal/mol
GTTTCCACGTGTGAGT	0.18 kcal/mol
TTTAACACGTGTCGCG	0.01 kcal/mol
AGGGGCACGTGGCTAT	-0.32 kcal/mol
ATGGACACGTGGAAAG	0.14 kcal/mol
GGTGTCACGTGGCGCT	0.02 kcal/mol
GTGGTCACGTGCGCGA	-0.04 kcal/mol
TGACGCACGTGGGCTA	-0.08 kcal/mol
TCGTGCACGTGGGCGT	-0.1 kcal/mol
TTCTGCACGTGGTTAG	-0.01 kcal/mol
CATATCACGTGGGGCG	0.09 kcal/mol
AGGGTCACGTGTAAAA	0.17 kcal/mol
ATATGCACGTGGTGTT	-0.19 kcal/mol
GTGTGCACGTGGGCCT	-0.2 kcal/mol
GTTATCACGTGATAGG	0.28 kcal/mol
ATGTCCACGTGCTGGT	0.03 kcal/mol
ATAGGCACGTGTATAC	-0.03 kcal/mol
TTTGGCACGTGGGTGG	-0.16 kcal/mol

Sequence	relative binding free energy
TGTGGCACGTGAGAAA	0.2 kcal/mol
TAGTCCACGTGAAGGG	0.41 kcal/mol
TGGATCACGTGCTAGT	0.21 kcal/mol
AACGGCACGTGTTTGT	-0.15 kcal/mol
GTCGGCACGTGGTCAG	-0.03 kcal/mol
GGGGACACGTGGAAGT	0.14 kcal/mol
GTCTGCACGTGGGGGA	-0.23 kcal/mol
CATCGCACGTGGGGTG	-0.27 kcal/mol
AGTTACACGTGCAGTG	0.06 kcal/mol
TTCGGCACGTGGGTAA	-0.18 kcal/mol
GCTTTCACGTGGCGTG	0.27 kcal/mol
GGCTGCACGTGGAGTG	-0.03 kcal/mol
ACAGTCACGTGGGGGT	-0.15 kcal/mol
CGCAGCACGTGGGGAT	-0.2 kcal/mol
CGTGACACGTGTAGGA	0.05 kcal/mol
TGCCGCACGTGGGTAT	-0.25 kcal/mol
TTCGGCACGTGGGACA	-0.1 kcal/mol
GCTGACACGTGAGAGG	0.39 kcal/mol
AAAATCACGTGTGATT	0.35 kcal/mol
GTGATCACGTGCGGCG	-0.02 kcal/mol
TTGTACACGTGGGTTG	-0.14 kcal/mol
GGTGTCACGTGGGCAT	0.08 kcal/mol
ATGATCACGTGGAGTT	0.16 kcal/mol
TAAATCACGTGTTATG	0.01 kcal/mol
GGTTACACGTGTGCCG	0.32 kcal/mol
TTAAGCACGTGGCGGA	-0.03 kcal/mol

Sequence	relative binding free energy
GGTGGCACGTGCAGAG	-0.07 kcal/mol
TATGGCACGTGCTGTG	-0.31 kcal/mol
ATGGACACGTGAGCGT	0.1 kcal/mol
GATGTCACGTGGTCGG	0.17 kcal/mol
AGCAACACGTGTGTGT	0.02 kcal/mol
GAGTTCACGTGGCGCT	0.4 kcal/mol
AAGGCCACGTGTAAGG	0.05 kcal/mol
ACGGGCACGTGGGGCG	-0.33 kcal/mol
GTCTGCACGTGTTGGC	0.07 kcal/mol
AGTTCCACGTGGTTGA	0.13 kcal/mol
GGTGGCACGTGTTAAG	0.04 kcal/mol
GTTCTCACGTGGGGAT	0.18 kcal/mol
GGGATCACGTGTGTCT	0.29 kcal/mol
CTTCGCACGTGGGGGA	-0.21 kcal/mol
CTGGTCACGTGCGGGG	0.08 kcal/mol
TCGTGCACGTGCATGG	-0.16 kcal/mol
CGGTCCACGTGGGGGT	-0.24 kcal/mol
TATTTCACGTGCGGCT	0.34 kcal/mol
AGCGGCACGTGAAATG	0.1 kcal/mol
GGATCCACGTGAGTTT	0.4 kcal/mol
CTTGTCACGTGTGTTT	0.19 kcal/mol
TGGGGCACGTGTGTCC	-0.09 kcal/mol
GTTTTCACGTGTTTCA	0.3 kcal/mol
TTAGACACGTGTGTCT	0.03 kcal/mol
TAGATCACGTGGTAGT	0.15 kcal/mol
CAGATCACGTGGGTGT	-0.09 kcal/mol

Sequence	relative binding free energy
CGTGTCACGTGCTGTT	-0.16 kcal/mol
TTTATCACGTGTTGTA	0.17 kcal/mol
TCGGCCACGTGAGTTG	0.19 kcal/mol
GTGTACACGTGGATGT	-0.04 kcal/mol
TGTAGCACGTGGTAAA	-0.15 kcal/mol
ATGAGCACGTGGATAG	-0.03 kcal/mol
GGGCTCACGTGTTATG	0.28 kcal/mol
TGTTGCACGTGCATAG	-0.2 kcal/mol
TTGTGCACGTGATTAC	0.08 kcal/mol
TCGTTCACGTGTGCGC	0.28 kcal/mol
TTTTTCACGTGGTATG	0.25 kcal/mol
TTAAACACGTGGATTT	0.04 kcal/mol
TGTATCACGTGAGTGT	0.28 kcal/mol
GCTAGCACGTGGTAGT	-0.1 kcal/mol
GATTGCACGTGGGTAG	-0.04 kcal/mol
CGTTACACGTGGTTTA	0.1 kcal/mol
CGATTCACGTGTAATG	0.29 kcal/mol
CGGTGCACGTGTTAGT	-0.16 kcal/mol
GCGTACACGTGTATGA	0.22 kcal/mol
GTTTCCACGTGTTAGT	0 kcal/mol
ACGGGCACGTGTGTGC	-0.12 kcal/mol
GGCGACACGTGGGTGC	-0.07 kcal/mol
GTATTCACGTGTAGAA	0.3 kcal/mol
TTCGGCACGTGTGGGT	-0.04 kcal/mol
AGCGACACGTGGAGGG	0.08 kcal/mol
GATAGCACGTGTTAAG	0.11 kcal/mol

Sequence	relative binding free energy
ATAGGCACGTGTAAGA	0.05 kcal/mol
TGCGGCACGTGTTGAA	-0.13 kcal/mol
GTAATCACGTGAGGAG	0.42 kcal/mol
ATTTTCACGTGTAAAG	0.3 kcal/mol
TGAGTCACGTGCGTTA	0 kcal/mol
TATGGCACGTGAATAT	0.08 kcal/mol
GGTTTCACGTGTATCG	0.41 kcal/mol
ACTGACACGTGTTTGG	0.07 kcal/mol
GGCGTCACGTGGGGGC	-0.03 kcal/mol
GTGTGCACGTGTATCT	0.03 kcal/mol
AGAGGCACGTGTGATT	0.01 kcal/mol
CGAGTCACGTGGGGTT	0.01 kcal/mol
GTTGGCACGTGGGTAC	-0.21 kcal/mol
CGGTCCACGTGTGGTT	0.08 kcal/mol
CGATTCACGTGGGTCG	0.24 kcal/mol
TTTGTCACGTGCGACG	0.06 kcal/mol
GGGGTCACGTGAAAGC	0.39 kcal/mol
TTTAGCACGTGTGTGC	-0.12 kcal/mol
CGGTTCACGTGAGGCA	0.49 kcal/mol
TGGCGCACGTGAGGGA	0.21 kcal/mol
AGGTCCACGTGGTGGA	0.03 kcal/mol
AGGTTCACGTGTCTAG	0.33 kcal/mol
